This sample is rich in variants without activity.
B1: tRNA (parent)
chain: CUCUCGGUAGCCAAGUUGGUUUAAGGCGCAAGACUUUAAUUUAUCACUACGAAAUCUUGAGAUCGGGCGUUCGACUCGCCCCCGGGAGAUUUUUUCCUCGAGCAA

Variants of: B1
Assay: nonsense suppression (GFP-seq) (ratio to wild type); higher = more function; SUP4oc tRNA, yeast GFP reporter sort-seq
Procedure, shortened: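 Yeast carrying genome-integrated SUP4oc tRNA variants from a library with ~3% random mutations were grown in raffinose/galactose medium with 80 mg/L adenine. Each strain also carried a galactose-driven GFP ochre reporter and RFP. Cells were sorted into GFP/RFP bins, and each bin was Illumina-sequenced (phred ≥30). Nonsense suppression (GFPSEQ) is the bin median GFP/RFP, weighted by each variant's estimated cell share per bin, relative to wild-type SUP4oc; variants needed ≥100 reads and ≥30 cells.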

Nonsense suppression, ≤ 0.026:
CUCUCGGUAGCCAAGUUGGUUUAAGGCGCAAGUCUUUAAUUUAUCACUACGAAAUCUUGAGAUGGGGCGUUCGACUCGCCCCCGGGAGAUUUUUUCCUCGAGCAA
CUCUCGGUAGCCAAGUUGGUUUAAGGCGCAAGUCUUUAAUUUAUCACUACGAAAUCUUGAGAUGGGGCGUUCGACCCGCCCCCGGGAGAUUUUUUCCUCGAGCAA
CUCUCGGUAGCCAAGUUGGUUUAAGGCGCAAGUCUUUAAUUUAUCACUACGAAAUCUUGAGAUCGGGAGUUCGACUCGCCCCCGGGAGAUUUUUUCCUCGAGCAA
CUCUCGGUAGCCAAGUUGGUUUAAGGCGCAAGUCUUUAAUUUAUCACUACGAAAUCUUGAGAUCGGGCGUUUGACUCGCCCUCGGGAGAUUUUUUCCUCGAGCAA
CUCUCGGUAGCCAAGUUGGUUUAAGGCGCAAGUCUUUAAUUUAUCACUACGAAAUCUUGAGAUCGGGCGUUCGACUAGCCCCCGGGAGAUUUUUUCCUCGAGCAA
CUCUCGGUAGCCAAGUUGGUUUAAGGCGCAAGUCUUUAAUUUAUCACUACGAAAUCUUGAGAUCGGGCGUUCGACUCGCACCCGGGAGAUUUUUUCCUCGAGCAA
CUCUCGGUAGCCAAGUUGGUUUAAGGCGCAAGUCUUUAAUUUAUCACUACGAAAUCUUAAGAUCGGGCGUUCGACUCGCCCCCGGGAGAUUUUUUCCUCGAGCAA
CUCUCGGUAGCCAAGUUGGUUUAAGGCGCAAGUCUUUAAUUUAUCACUACGAAAUCUUGAAAUCGGGCGUUCUACUCGCCCCCGGGAGAUUUUUUCCUCGAGCAA
CUCUCGGUAGCCAAGUUGGUUUAAGGCGCAAGUCUUUAAUUUAUCACUACGAAAUCUUGAGAUCUGGCGUUCGACUCGCCCCCGGGAGAUUUUUUCCUCGAGCAA
CUCUCGGUAGCCAAGUUGGUUUAAGGCGCAAGUCUUUAAUUUAUCACUACGAAAUCUUGAGAUCGAGCGUUCGACUCGCCCCCUGGAGAUUUUUUCCUCGAGCAA
CUCUCGGUAGCCAAGUUGGUUUAAGGCGCAAGUCUUUAAUUUAUCACUACGAAAUCUUGAGAUCGUGCGUUCCACUCGCCCCCGGGCGAUUUUUUCCUCGAGCAA
CUCUCGGUAGCCAAGUUGGUUUAAGGCGCAAGUCUUUAAUUUAUCACUACGAAAUCUUGAGAUCGGGCAUUCAACUCGCCCCCGGGCGAUUUUUUCCUCGAGCAA
CUCUCGGUAGCCAAGUUGGUUUAAGGCGCAAGUCUUUAAUUUAUCACUACGAAAUCUUGAGAUCGGGCCUUCGACUCGCCCCCGGGAGAUUUUUUCCUCGAGCAA
CUCUCGGUAGCCAAGUUGGUUUAAGGCGCAAGUCUUUAAUUUAUCACUACGAAAUCUUGAGAUCGGGCCUUCAACUCGCCCCCGGGAGAUUUUUUCCUCGAGCAA
CUCUCGGUAGCCAAGUUGGUUUAAGGCGCAAGUCUUUAAUUUAUCACUACGAAAUCUUGAGAUCGGGCGUUCCACUCGCCCCCGGGAGAUUUUUUCCUCGAGCAA
CUCUCGGUAGCCAAGUUGGUUUAAGGCGCAAGUCUUUAAUUUAUCACUACGAAAUCUUGAGAUCGGGCGUUCGACUCGCCCCCUGGAGAUUUUUUCCUCGAGCAA
CUCUCGGUAGCCAAGUUGGUUUAAGGCGCAAGUCUUUAAUUUAUCACUACGAAAUCUUGAGAUCGGGCGUUCGACUCGCCCCCGUGAGAUUUUUUCCUCGAGCAA
CUCUCGGUAGCCAAGUUGGUUUAAGGCGCAAGUCUUUAAUUUAUCACUACGAAAUCUUGAGAUCGGGCGUUCGACUCGCCCCCGGCAGAUUUUUUCCUCGAGCAA
CUCUCGGUAGCCAAGUUGGUUUAAGGCGCAAGUCUUUAAUUUAUCACUACGAAAUCUUGAGAUCGGGCGUUCGACUCGCCCCCGGGAAAUUUUUUCCUCGAGCAA
CUCUCGGUAGCCAAGUUGGUUUAAGGCGCAAGUCCUUAAUUUAUCACUACGAAACCUUGAGAUCGGGCGUUCGACUCGCCCCCGGGAGAUUUUUUCCUCGAGCAA
CUCUCGGUAGCCAAGUUGGUUUAAGGCGCAAGUCUUUAAUUUAUCACUACGAAAUCGUGAGAUCGGGCGUUCGACUCGCCCCCGGGAGAUUUUUUCCUCGAGCAA
CUCUCGGUAGCCAAGUUGGUUUAAGGCGCAAGUCUUUAAUUUAUCACUACGAAAUCUCGAUACCGGGCGUUCGACUCGCCUCCGGGAGAUUUUUUCCUCGAGCAA
CUCUCGGUAGCCAAGUUGGUUUAAGGCGCAAGUCUUUAAUUUAUCACUACGAAAUCUGGAGAUCGGGCGUUCGACUCGCCCCCGGGAGAUUUUUUCCUCGAGCAA
CUCUCGGUAGCCAAGUUGGUUUAAGGCGCAAGUCUUUAAUUUAUCACUACGAAAUCUUGAGAUCGGGCGUACGACUCGCCCCCGGGAGAUUUUUUCCUCGAGCAA
CUCUCGGUAGCCAAGUUGGUUUAAGGCGCAAGUCUUUAAUUUAUCACUACGAAAUCUUGAGAUCGGGCGUACGACUCUCCCUCGGGAGAUUUUUUCCUCGAGCAA
CUCUCGGUAGCCAAGUUGGUUUAAGGCGCAAGUCUUUAAUUUAUCACUACGAAAUCUUGAGAUCGGGCGUUCGACGCACCCCCGGGAGAUUUUUUCCUCGAGCAA
CUCUCGGUAGCCAAGUUGGUUUAAGGCGCAAGAAUUUAAUUUAUCACUACGAACUCUUGAGAUCGGGCGUUCCACGCGCCCCCGGCAGAUUUUUUCCUCGAGCAA

Reference: the RNAGym collection of RNA variant scans (doi:10.1101/gad.245936.114)
